In the supplement of paper PMC10126150:
Values marked as one replicate rest on one cluster of the flow cell; about a third of the high ones do not repeat.

Test system: ATP
Assay: switch fluorescence ratio, 500 uM ATP over buffer (Cy3 cluster intensity, sum of 5 cycles each) (fold (ratio)); higher = stronger signal-on switching upon ATP binding; sequences stand for … in TCGTCGGCAGCGTCAGATGTGTATAAGAGACAGTTTTTTTTTTTTTTTTTTTTTTTTT…TC
Settings: aptamer strand: ATP DNA aptamer (quencher-CACCTGGGGGAGTATTGCGGAGGAAGG + anchor), 100 nM annealed; ATP concentration: 500 uM; one replicate
Summary of the method: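 Clusters with intensities outside 100-1000 RFU were excluded. The remaining Cy3-labelled switching-strand clusters on a modified Illumina MiSeq flow-cell had been annealed to 100 nM quencher-labelled ATP aptamer and imaged in selection buffer, then after 15 min with 500 uM ATP at 22 °C, for five cycles separated by NaOH stripping and re-annealing. The fluorescence ratio, averaged per switch-domain sequence, is each cluster's summed target-cycle Cy3 intensity over its summed buffer-cycle Cy3 intensity.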
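Further: ATP exposure 15 min at 22 °C before imaging.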

Row | Sequence | switch fluorescence ratio
1 | CATATCTTGA | 0.957
2 | CATATGGAA | 0.987
3 | CATATGGTTC | 1.07
4 | CATATTAAGG | 0.941
5 | CATATTACAA | 1.02
6 | CATATTCCTG | 0.981
7 | CATATTGTGT | 0.968
8 | CATATTTACG | 1.07
9 | CATCAAAGCG | 0.97
10 | CATCAACGCA | 1.54
11 | CATCCTAGCA | 1.97
12 | CATCGAAAGT | 1.08
13 | CATCGAGGGC | 1.02
14 | CATCGATACT | 1.21
15 | CATCGATCAG | 0.995
16 | CATCGATCTG | 0.982
17 | CATCGCACGC | 3.33
18 | CATCGGCT | 1.2
19 | CATCGGGGGC | 1.07
20 | CATCGGTAAG | 1.02
21 | CATCGGTGAT | 1.02
22 | CATCGTATTG | 0.97

Row | Sequence | switch fluorescence ratio
23 | CATCGTCGCC | 0.967
24 | CATCGTCGG | 1
25 | CATCTAGGAG | 1.02
26 | CATCTGACCC | 1.07
27 | CATCTTGAGA | 0.994
28 | CATGAGTAGT | 0.973
29 | CATGATCTTC | 0.975
30 | CATGATCTTG | 0.992
31 | CATGCAGATG | 0.969
32 | CATGCCGAGC | 1.07
33 | CATGCGCGGG | 1.04
34 | CATGCGGGTT | 1.04
35 | CATGCTTCTA | 1.04
36 | CATGCTTTGG | 0.991
37 | CATGGACGGG | 1.09
38 | CATGGCAAT | 1.77
39 | CATGGCGTAA | 0.992
40 | CATGGCTGAT | 0.994
41 | CATGGGCGCC | 0.968
42 | CATGGGGAGA | 1.01
43 | CATGGGGCCC | 1.01
44 | CATGGTTCGG | 0.976

Row | Sequence | switch fluorescence ratio
45 | CATGGTTTGT | 0.998
46 | CATGTCCCGG | 0.989
47 | CATGTCCCTT | 0.982
48 | CATGTCTAAG | 0.997
49 | CATGTGAGGG | 0.974
50 | CATGTGGGCG | 0.95
51 | CATGTGTTCG | 1.03
52 | CATTAAAAGT | 0.971
53 | CATTAAGCAC | 4.3
54 | CATTAATCGT | 0.966
55 | CATTAATTTA | 1.02
56 | CATTACGGT | 1.04
57 | CATTAGAGT | 1.01
58 | CATTAGGTA | 1.01
59 | CATTATTCTG | 1.02
60 | CATTATTGTA | 0.943
61 | CATTCAGTGA | 0.992
62 | CATTCATGAC | 1.03
63 | CATTCGATCA | 1
64 | CATTCGATTT | 1.02
65 | CATTCGTAAT | 4.97
66 | CATTCTTATC | 0.973

Row | Sequence | switch fluorescence ratio
67 | CATTCTTGG | 0.947
68 | CATTGACCCC | 1.11
69 | CATTGATCCT | 1.04
70 | CATTGCATGC | 1.23
71 | CATTGCCCCG | 1
72 | CATTGGTTCG | 1.04
73 | CATTGTGAG | 0.975
74 | CATTTAAATC | 0.964
75 | CATTTAATTA | 1.02
76 | CATTTACGAG | 1.03
77 | CATTTAGTAC | 0.988
78 | CATTTGATGC | 0.972
79 | CATTTGCAAT | 1.17
80 | CATTTGCGAC | 1.39
81 | CATTTTGGGG | 1.06
82 | CATTTTGTCG | 0.927
83 | CATTTTTACA | 0.98
84 | CCAAATTACA | 1.03
85 | CCAACAGCTC | 1.44
